Results from the supplement of paper PMC4967469.

compound: COc1ncc(-c2ccc3nccc(-c4ccnnc4)c3c2)cc1NS(=O)(=O)c1ccc(F)cc1F [GSK2126458]; assay: Viability of human cancer cell lines after 72 h of drug (GDSC screen); settings: top dose inferred
Experimental: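 Human cancer cell lines in 384-well plates, medium with 10% serum, drug for 72 h over a 256-fold dose range (nine 2-fold or five 4-fold steps up to the top dose). Adherent lines were fixed and stained with the nucleic acid dye Syto60, suspension lines read with resazurin; signal relative to control wells, capped at 0 and 100%. One two-parameter sigmoid per drug and line, fitted in a mixed model over all curves with the slope shared within a line.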

Row | Cell Line | AUC | IC50
1 | AM-38 (glioma, semi-adherent, top dose 0.128 µM) | 0.691 | 27.8 nM
2 | AMO-1 (haematopoietic neoplasm, suspension, top dose 0.128 µM) | 0.483 | 7.23 nM
3 | AN3-CA (endometrium, adherent, top dose 0.128 µM) | 0.564 | 12.2 nM
4 | ARH-77 (myeloma, suspension, top dose 0.128 µM) | 0.325 | 2.65 nM
5 | ASH-3 (thyroid, adherent, top dose 0.128 µM) | 0.884 | > 128 nM
6 | ATN-1 (T-cell lymphoblastic leukaemia, suspension, top dose 1.024 µM) | 0.339 | 23.7 nM
7 | AU565 (breast, adherent, top dose 0.128 µM) | 0.729 | 39 nM
8 | AsPC-1 (pancreas, adherent, top dose 0.128 µM) | 0.777 | 96.5 nM
9 | BB30-HNC (head and neck, adherent, top dose 0.128 µM) | 0.519 | 9.01 nM
10 | BB49-HNC (head and neck, adherent, top dose 0.128 µM) | 0.956 | > 128 nM
11 | BB65-RCC (kidney, adherent, top dose 0.128 µM) | 0.879 | > 128 nM
12 | BC-1 (B-cell lymphoma, suspension, top dose 0.128 µM) | 0.737 | 33.4 nM
13 | BC-3 (B-cell lymphoma, suspension, top dose 0.128 µM) | 0.542 | 10.3 nM
14 | BCPAP (thyroid, adherent, top dose 0.128 µM) | 0.759 | 40.9 nM
15 | BE2-M17 (neuroblastoma, adherent, top dose 0.128 µM) | 0.888 | > 128 nM
16 | BE-13 (lymphoblastic leukaemia, suspension, top dose 0.128 µM) | 0.864 | 100 nM
17 | BEN (non-small cell lung carcinoma, adherent, top dose 0.128 µM) | 0.805 | 76.2 nM
18 | BFTC-905 (bladder, adherent, top dose 0.128 µM) | 0.677 | 23 nM
19 | BFTC-909 (kidney, adherent, top dose 0.128 µM) | 0.964 | > 128 nM
20 | BHT-101 (thyroid, adherent, top dose 0.128 µM) | 0.839 | 90.9 nM

Row | Cell Line | AUC | IC50
21 | BHY (head and neck, adherent, top dose 0.128 µM) | 0.636 | 19.1 nM
22 | BICR10 (head and neck, adherent, top dose 0.128 µM) | 0.934 | > 128 nM
23 | BICR22 (head and neck, adherent, top dose 0.128 µM) | 0.487 | 7.34 nM
24 | BICR31 (head and neck, adherent, top dose 0.128 µM) | 0.776 | 51.7 nM
25 | BICR78 (head and neck, adherent, top dose 0.128 µM) | 0.873 | > 128 nM
26 | BL-41 (Burkitt lymphoma, suspension, top dose 0.128 µM) | 0.22 | 1.58 nM
27 | BPH-1 (prostate, adherent, top dose 0.128 µM) | 0.409 | 4.37 nM
28 | BT-20 (breast, adherent, top dose 0.128 µM) | 0.628 | 19.7 nM
29 | BT-483 (breast, adherent, top dose 1.024 µM) | 0.503 | 65.7 nM
30 | BV-173 (chronic myeloid leukaemia, suspension, top dose 0.128 µM) | 0.758 | 39.7 nM
31 | Becker (glioma, adherent, top dose 0.128 µM) | 0.591 | 14.7 nM
32 | BxPC-3 (pancreas, adherent, top dose 0.128 µM) | 0.799 | 70.3 nM
33 | C2BBe1 (large intestine, adherent, top dose 0.128 µM) | 0.572 | 12.9 nM
34 | C3A (liver, adherent, top dose 0.128 µM) | 0.988 | > 128 nM
35 | C32 (melanoma, adherent, top dose 0.128 µM) | 0.934 | > 128 nM
36 | C-4-I (cervix, adherent, top dose 0.128 µM) | 0.972 | > 128 nM
37 | C-33-A (cervix, adherent, top dose 0.128 µM) | 0.836 | 85.3 nM
38 | CA46 (Burkitt lymphoma, suspension, top dose 0.128 µM) | 0.434 | 5.22 nM
39 | CADO-ES1 (Ewing sarcoma, suspension, top dose 0.128 µM) | 0.623 | 17.5 nM
40 | CAKI-1 (kidney, adherent, top dose 0.128 µM) | 0.707 | 41.4 nM

Row | Cell Line | AUC | IC50
41 | CAL-12T (non-small cell lung carcinoma, adherent, top dose 0.128 µM) | 0.48 | 7 nM
42 | CAL-27 (head and neck, adherent, top dose 0.128 µM) | 0.815 | 71.7 nM
43 | CAL-29 (bladder, adherent, top dose 0.128 µM) | 0.588 | 14.2 nM
44 | CAL-33 (head and neck, adherent, top dose 0.128 µM) | 0.423 | 4.94 nM
45 | CAL-39 (cervix, adherent, top dose 0.128 µM) | 0.91 | > 128 nM
46 | CAL-51 (breast, adherent, top dose 0.128 µM) | 0.878 | 99.8 nM
47 | CAL-54 (kidney, adherent, top dose 0.128 µM) | 0.936 | > 128 nM
48 | CAL-62 (thyroid, adherent, top dose 0.128 µM) | 0.899 | > 128 nM
49 | CAL-72 (osteosarcoma, adherent, top dose 0.128 µM) | 0.984 | > 128 nM
50 | CAL-78 (chondrosarcoma, adherent, top dose 0.128 µM) | 0.985 | > 128 nM
51 | CAL-85-1 (breast, adherent, top dose 0.128 µM) | 0.7 | 34.6 nM
52 | CAL-120 (breast, adherent, top dose 0.128 µM) | 0.64 | 21.9 nM
53 | CAL-148 (breast, suspension, top dose 0.128 µM) | 0.821 | 67 nM
54 | CAMA-1 (breast, adherent, top dose 0.128 µM) | 0.777 | 65.4 nM
55 | CAPAN-1 (pancreas, adherent, top dose 0.128 µM) | 0.651 | 22 nM
56 | CAS-1 (glioma, adherent, top dose 0.128 µM) | 0.686 | 32.3 nM
57 | CCF-STTG1 (glioma, adherent, top dose 0.128 µM) | 0.49 | 7.5 nM
58 | CCK-81 (large intestine, adherent, top dose 1.024 µM) | 0.406 | 35.9 nM
59 | CCRF-CEM (lymphoblastic leukaemia, suspension, top dose 0.128 µM) | 0.433 | 5.41 nM

Lines with a small IC50 respond at low doses; a limit (>, <) means that the fit lies beyond the doses tested. AUC is the area under the same curve over the 256-fold range up to the top dose, as a fraction: 1 means no effect, lower means more sensitive. A top dose marked as inferred was derived from the fitted curves, not read from the paper.
